In all, about 310,000 compounds went through this assay and about 14,000 (4.5%) showed an effect of 50% or more. The effect is printed as a negative number. The list shows a part of the results.
Biological target: human ether-à-go-go-related gene (hERG) potassium channel (human, UniProt Q12809)
Test: primary screen, population patch clamp on CHO cells stably expressing hERG
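Note: peak tail current of the secondary pulse compared with the same well before compound.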

Sequence of human ether-à-go-go-related gene (hERG) potassium channel (Q12809 whole entry, looked up): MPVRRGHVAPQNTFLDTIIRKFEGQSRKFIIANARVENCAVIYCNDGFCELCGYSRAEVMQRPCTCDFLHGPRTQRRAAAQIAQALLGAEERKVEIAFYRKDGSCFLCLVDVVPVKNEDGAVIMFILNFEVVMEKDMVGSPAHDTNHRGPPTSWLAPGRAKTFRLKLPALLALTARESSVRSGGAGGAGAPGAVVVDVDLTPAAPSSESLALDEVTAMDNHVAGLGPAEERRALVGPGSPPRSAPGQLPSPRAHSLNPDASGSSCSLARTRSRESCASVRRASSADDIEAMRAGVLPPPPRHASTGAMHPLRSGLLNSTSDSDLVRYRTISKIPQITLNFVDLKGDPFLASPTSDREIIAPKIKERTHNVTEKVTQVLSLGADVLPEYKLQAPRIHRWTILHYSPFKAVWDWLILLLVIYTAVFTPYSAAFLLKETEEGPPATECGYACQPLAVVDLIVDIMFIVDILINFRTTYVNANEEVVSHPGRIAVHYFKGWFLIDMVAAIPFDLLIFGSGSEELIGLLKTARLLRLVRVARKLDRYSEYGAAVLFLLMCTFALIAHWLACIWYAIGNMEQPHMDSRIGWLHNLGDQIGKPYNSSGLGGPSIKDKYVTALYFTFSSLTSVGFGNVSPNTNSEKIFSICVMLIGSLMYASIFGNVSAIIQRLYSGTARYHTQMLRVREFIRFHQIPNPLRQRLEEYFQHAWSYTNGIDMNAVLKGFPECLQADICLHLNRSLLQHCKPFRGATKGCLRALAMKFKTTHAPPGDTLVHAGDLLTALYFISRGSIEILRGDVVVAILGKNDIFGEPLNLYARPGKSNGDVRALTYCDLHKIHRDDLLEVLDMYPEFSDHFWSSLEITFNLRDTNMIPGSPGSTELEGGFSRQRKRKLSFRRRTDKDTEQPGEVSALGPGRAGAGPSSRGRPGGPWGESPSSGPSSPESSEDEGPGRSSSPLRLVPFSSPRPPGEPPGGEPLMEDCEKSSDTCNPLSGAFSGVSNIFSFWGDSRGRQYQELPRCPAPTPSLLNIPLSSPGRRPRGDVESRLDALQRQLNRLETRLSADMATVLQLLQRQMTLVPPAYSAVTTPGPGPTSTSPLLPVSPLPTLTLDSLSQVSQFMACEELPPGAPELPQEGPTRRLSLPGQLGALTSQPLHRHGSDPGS

SMILES	hERG current change (%, negative = inhibition) at 10uM [%]
O=C(OCC(=O)N1CCc2ccccc21)[C@@H]1CCCN1S(=O)(=O)c1ccccc1F	-10.6
CC(C)CCNC(=O)CN(Cc1ccccc1)C(=O)CCC(=O)Nc1nccs1	-13.4
COc1cc(OC)c(NC(=O)CN(C)S(=O)(=O)c2ccc3[nH]c(=O)oc3c2)cc1Cl	3.44
CC1CCCC(C)N1CCCNC(=O)C(=O)Nc1ccc2nc3n(c(=O)c2c1)CCCCC3 (centres unmarked)	16.8
O=C(N/C(=C/c1cccc([N+](=O)[O-])c1)C(=O)N1CCOCC1)c1ccc(Br)cc1	-46.6
O=C(NC(C(=O)c1ccccc1)n1c(=O)cc[nH]c1=S)c1ccccc1 (centres unmarked)	-6.96
CCOC(=O)c1ccc(N2C(=O)c3n[nH]c(C)c3C2c2ccco2)cc1 (centres unmarked)	-5.29
CCC(C)N1C(=O)CCC1C(=O)N1CCN(c2ccccc2F)CC1 (centres unmarked)	15.2
O=c1[nH]nc(Cc2ccccn2)c2ccccc12	-8.08
COc1cc(CN=Cc2c(O)n(C(C)(C)C)c(=O)[nH]c2=O)cc(OC)c1	6.84
CCC(=O)Nc1ccc(/C(C)=N/NC(=O)c2c(Br)c(C)nn2C)cc1	5.35
CCN(Cc1nc(-c2ccccc2)no1)C(=O)c1ccoc1C	23.8
CC1CC(NC2=NCCS2)CC(C)(C)C1 (centres unmarked)	-2.81
CCCNC(=O)c1ccccc1NC(=O)c1ccccc1SC	3.1
COc1cc(S(=O)(=O)NCc2ccncc2)c(OC)cc1Br	-14.7
CCc1cccc2c(C(=O)COC(=O)c3nn(C)c(=O)c4ccccc34)c[nH]c12	-65.6
CC(=O)c1ccc(NC(=O)CSC(C)C)cc1	-9.24
Cc1ccc(NC(=O)/C(C#N)=C(\N)C(Cl)(Cl)Cl)nc1	15.1
COc1cccc(Cn2nnc(C(=O)NCc3ccccc3Cl)c2N)c1	-3.06
O=C(c1ccc2c3c(cccc13)CC2)C1CCCN(Cc2ncc[nH]2)C1 (centres unmarked)	-55.7
O=C(Cc1ccc(Cl)c(Cl)c1)N1CCOCC1	28
COC(c1ccc(Cl)cc1)(c1ccc(Cl)cc1)C(Oc1nc(C)cc(C)n1)C(=O)O (centres unmarked)	12.7

SMILES	hERG current change (%, negative = inhibition) at 10uM [%]
C#CCOCCOCCOCCNc1nc(N2CCN(C(=O)[C@H](CCCCN)n3cc([C@@H](N)C(C)CC)nn3)CC2)nc(N2CCN(C(=O)[C@H](Cc3ccc(O)cc3)n3cc([C@@H](N)CC(C)C)nn3)CC2)n1.Cl (some centres unmarked)	-4.75
O=C(Nc1ccc(Cl)cc1F)c1cccc2ccccc12	12.2
CN(C1=NC(=O)CS1)c1ccc(O)cc1	-3.05
CC(=O)NCC(=O)N(C)C(C(=O)Nc1ccc2c(c1)OCCO2)c1ccc(C)cc1 (centres unmarked)	5.94
CN(C)c1cccc2c1c(NC(=O)Nc1ccc(Cl)cc1Cl)nn2C	4.01
O=C(Cn1cnc2c(nnn2Cc2ccc(Cl)cc2)c1=O)NCc1ccco1	-16.5
CC1CCCCN1CCCn1c(=S)[nH]c2ccccc2c1=O (centres unmarked)	-46.4
CSCCC(NC(=O)c1ccc(Cl)cc1Cl)C(=O)NNC(=O)c1csc(N2CCOCC2)n1 (centres unmarked)	-56.8
COc1ccc2c(c1)CCCN2C(N)=Nc1ccc(Cl)cc1	-63.7
O=C(CSc1nnc(COc2ccc(F)cc2)o1)N1CCCCC1	1.76
CCCCc1ccc(NC(=O)OC)cc1	-9.08
CC(=O)Nc1cccc(NC(=O)CN2c3cccc4cccc(c34)S2(=O)=O)c1	-3.02
COc1cc(C(=O)NCc2ncccc2C)ccc1OC1CCN(C(C)=O)CC1	6.34
Cc1cc(C)n(CCCNC(=O)C2CC(=O)N(Cc3ccccc3)C2)n1 (centres unmarked)	5
CN(C)CCCNc1c2ccccc2nc2ccccc12	-28.8
Nc1nnc(SCc2ccc(F)cc2)n1-c1ccccc1	-20.3
FC(F)(F)c1cccc(CNc2ncccc2-c2nc3cc(Cl)ccc3o2)c1	-4.29
CC1CCC(NC(=O)CNC(=O)c2cccs2)CC1 (centres unmarked)	7.33
COCCN1C(=O)C(=O)/C(=C(/O)c2cccc(OC)c2)C1c1ccncc1 (centres unmarked)	33.5
COc1ccc(OCCSc2nnc3sc4ccccc4n23)cc1	-25.4
CCc1nc2ccccc2c2nc3ccccc3n12	3.74
COCn1c(-c2ccc(OC)c(OC)c2)nc2ccccc21	-2.29

Reference: publication PMC4336329 (PLoS ONE, 2015)
